{"source": "ChEMBL document CHEMBL5606460", "about": "“ASAP - DENV-2 NS2B-NS3 protease fluorescence single point” (2024)", "molecular_target": "Genome polyprotein (dengue virus type 2) (UniProt P29990)", "key": {"[1]": {"settings": "Thailand/16681/1984, Concentration 25.0 uM, Number of replicates 1.0"}}, "note": "Hit rate of the full screen: of about 2,000 compounds, about 110 (5.5%) showed an effect of 50% or more. The list shows a part of the results."}
{"compound": "COc1nscc1-c1ccccc1C(=O)Nc1cnn(C)c1", "values": [{"measurement": "inhibition", "setting": "Thailand/16681/1984, Concentration 49.5 uM, Number of replicates 2.0, Standard deviation 3.4553083491697665 %", "result": -2.15, "unit": "%"}, {"measurement": "inhibition", "setting": "Thailand/16681/1984, Concentration 99.01 uM, Number of replicates 2.0, Standard deviation 2.823413251353637 %", "result": -1.12, "unit": "%"}, {"measurement": "inhibition", "setting": "Thailand/16681/1984, Concentration 198.0 uM, Number of replicates 2.0, Standard deviation 2.6036236108826314 %", "result": 1.59, "unit": "%"}]}
{"compound": "Cc1nn([C@@H](C)c2ccc(F)c(F)c2F)cc1C1CCNCC1", "values": [{"measurement": "inhibition", "setting": "Thailand/16681/1984, Concentration 49.5 uM, Number of replicates 2.0, Standard deviation 2.5332983699082936 %", "result": 0.344, "unit": "%"}, {"measurement": "inhibition", "setting": "Thailand/16681/1984, Concentration 99.01 uM, Number of replicates 2.0, Standard deviation 1.1323289278441409 %", "result": 0.372, "unit": "%"}, {"measurement": "inhibition", "setting": "Thailand/16681/1984, Concentration 198.0 uM, Number of replicates 2.0, Standard deviation 6.845165318926996 %", "result": 5.1, "unit": "%"}]}
{"compound": "O=C(Nc1cccc(B(O)O)c1)[C@H]1CCN2CCOC[C@@H]12", "values": [{"measurement": "inhibition", "setting": "Thailand/16681/1984, Concentration 49.5 uM, Number of replicates 2.0, Standard deviation 4.614378251208887 %", "result": -7.27, "unit": "%"}, {"measurement": "inhibition", "setting": "Thailand/16681/1984, Concentration 99.01 uM, Number of replicates 2.0, Standard deviation 4.682429395751547 %", "result": -6.49, "unit": "%"}, {"measurement": "inhibition", "setting": "Thailand/16681/1984, Concentration 198.0 uM, Number of replicates 2.0, Standard deviation 0.09888712761238215 %", "result": -2.94, "unit": "%"}]}
{"compound": "Cc1cc(CO)c2cccc(Cc3ccccc3NC(=O)[C@@H](N)CCN)c2n1", "values": [{"measurement": "inhibition", "setting": "Thailand/16681/1984, Concentration 49.95 uM, Number of replicates 2.0, Standard deviation 0.5289626735368232 %", "result": -3.08, "unit": "%"}, {"measurement": "inhibition", "setting": "Thailand/16681/1984, Concentration 99.9 uM, Number of replicates 2.0, Standard deviation 0.0906990064710797 %", "result": 3.81, "unit": "%"}]}
{"compound": "O=C(O)c1cccc(NC(=O)c2ccc3[nH]ccc3c2)c1", "values": [{"measurement": "inhibition", "setting": "Thailand/16681/1984, Concentration 49.5 uM, Number of replicates 2.0, Standard deviation 0.22300032417029267 %", "result": 5.57, "unit": "%"}, {"measurement": "inhibition", "setting": "Thailand/16681/1984, Concentration 99.01 uM, Number of replicates 2.0, Standard deviation 0.15567022791195734 %", "result": 15.4, "unit": "%"}, {"measurement": "inhibition", "setting": "Thailand/16681/1984, Concentration 198.0 uM, Number of replicates 2.0, Standard deviation 0.15662712996054867 %", "result": 36.4, "unit": "%"}]}
{"compound": "CNC(=O)c1cc(OC)ccc1NS(=O)(=O)c1ccc(Oc2ccccc2Cl)cc1", "values": [{"measurement": "inhibition", "setting": "Thailand/16681/1984, Concentration 49.5 uM, Number of replicates 2.0, Standard deviation 1.018543331825067 %", "result": 7.08, "unit": "%"}, {"measurement": "inhibition", "setting": "Thailand/16681/1984, Concentration 99.01 uM, Number of replicates 2.0, Standard deviation 0.3266212172200244 %", "result": 15.5, "unit": "%"}, {"measurement": "inhibition", "setting": "Thailand/16681/1984, Concentration 198.0 uM, Number of replicates 2.0, Standard deviation 0.9287695329724984 %", "result": 21.9, "unit": "%"}]}
{"compound": "Cc1cnccc1NC(=O)c1cn(C)c(=O)n(C)c1=O", "values": [{"measurement": "inhibition", "setting": "Thailand/16681/1984, Concentration 49.5 uM, Number of replicates 2.0, Standard deviation 0.3392530070403759 %", "result": -0.508, "unit": "%"}, {"measurement": "inhibition", "setting": "Thailand/16681/1984, Concentration 99.01 uM, Number of replicates 2.0, Standard deviation 1.12506268076905 %", "result": -0.811, "unit": "%"}, {"measurement": "inhibition", "setting": "Thailand/16681/1984, Concentration 198.0 uM, Number of replicates 2.0, Standard deviation 0.6438220237419848 %", "result": -0.548, "unit": "%"}]}
{"compound": "CN(C[C@H](O)c1ccc(O)cc1)C(=O)C1CCN(c2ccc(C=O)cc2)CC1", "values": [{"measurement": "inhibition", "setting": "[1]", "result": 13.7, "unit": "%"}]}
{"compound": "Cn1ccnc1CC(=O)N[C@@]1(C)CCCN(C(=O)c2cc(F)c3[nH]nnc3c2)C1", "values": [{"measurement": "inhibition", "setting": "Thailand/16681/1984, Concentration 49.5 uM, Number of replicates 2.0, Standard deviation 0.29553266916060045 %", "result": -0.611, "unit": "%"}, {"measurement": "inhibition", "setting": "Thailand/16681/1984, Concentration 99.01 uM, Number of replicates 2.0, Standard deviation 0.07184219034594187 %", "result": 0.098, "unit": "%"}, {"measurement": "inhibition", "setting": "Thailand/16681/1984, Concentration 198.0 uM, Number of replicates 2.0, Standard deviation 0.3570339194901519 %", "result": 0.729, "unit": "%"}]}
{"compound": "N#C[C@H]1CCCN(Cc2c[nH]c3ccccc23)C1", "values": [{"measurement": "inhibition", "setting": "Thailand/16681/1984, Concentration 49.5 uM, Number of replicates 2.0, Standard deviation 3.56911221584767 %", "result": -1.34, "unit": "%"}, {"measurement": "inhibition", "setting": "Thailand/16681/1984, Concentration 99.01 uM, Number of replicates 2.0, Standard deviation 2.9055373129077813 %", "result": -0.332, "unit": "%"}, {"measurement": "inhibition", "setting": "Thailand/16681/1984, Concentration 198.0 uM, Number of replicates 2.0, Standard deviation 3.9015387821284335 %", "result": 2, "unit": "%"}]}
{"compound": "O=Cc1ccc(N2CCC(C(=O)N3CCN(C(=O)C4CC4)CC3)CC2)cc1", "values": [{"measurement": "inhibition", "setting": "[1]", "result": 12.5, "unit": "%"}]}
{"compound": "c1cnc2c(C3CCN(Cc4ccc5[nH]cnc5c4)CC3)c[nH]c2c1", "values": [{"measurement": "inhibition", "setting": "Thailand/16681/1984, Concentration 49.5 uM, Number of replicates 2.0, Standard deviation 3.3849989343370446 %", "result": -4.37, "unit": "%"}, {"measurement": "inhibition", "setting": "Thailand/16681/1984, Concentration 99.01 uM, Number of replicates 2.0, Standard deviation 2.5993212395132153 %", "result": -4.74, "unit": "%"}, {"measurement": "inhibition", "setting": "Thailand/16681/1984, Concentration 198.0 uM, Number of replicates 2.0, Standard deviation 2.013738658274251 %", "result": -3.37, "unit": "%"}]}
{"compound": "NCc1cccc(NC(=O)[C@H]2CC(F)(F)CN2C(=O)OCc2ccccc2)c1", "values": [{"measurement": "inhibition", "setting": "Thailand/16681/1984, Concentration 49.5 uM, Number of replicates 2.0, Standard deviation 3.8817212285914895 %", "result": -3.13, "unit": "%"}, {"measurement": "inhibition", "setting": "Thailand/16681/1984, Concentration 99.01 uM, Number of replicates 2.0, Standard deviation 4.048573795130085 %", "result": -2.21, "unit": "%"}, {"measurement": "inhibition", "setting": "Thailand/16681/1984, Concentration 198.0 uM, Number of replicates 2.0, Standard deviation 4.090127173867097 %", "result": -1.49, "unit": "%"}]}
{"compound": "O=C(O)c1cc(Cl)ccc1NS(=O)(=O)c1ccc(Br)cc1", "values": [{"measurement": "inhibition", "setting": "Thailand/16681/1984, Concentration 49.5 uM, Number of replicates 2.0, Standard deviation 1.3795853744617563 %", "result": 7.98, "unit": "%"}, {"measurement": "inhibition", "setting": "Thailand/16681/1984, Concentration 99.01 uM, Number of replicates 2.0, Standard deviation 2.3616490916140984 %", "result": 19.6, "unit": "%"}, {"measurement": "inhibition", "setting": "Thailand/16681/1984, Concentration 198.0 uM, Number of replicates 2.0, Standard deviation 0.9946440456706616 %", "result": 67, "unit": "%"}]}
{"compound": "O=Cc1ccc(N2CCC(C(=O)N3CCN(C(=O)c4ccccc4Cl)CC3)CC2)cc1", "values": [{"measurement": "inhibition", "setting": "[1]", "result": 12.5, "unit": "%"}]}
{"compound": "COc1cc(Cl)c(C)cc1NC(=O)C1CCN(c2ccc(C=O)cc2)CC1", "values": [{"measurement": "inhibition", "setting": "[1]", "result": 13.9, "unit": "%"}]}
{"compound": "O=Cc1ccc(N2CCC(C(=O)NC[C@H](c3cccnc3)N3CCOCC3)CC2)cc1", "values": [{"measurement": "inhibition", "setting": "[1]", "result": 14.4, "unit": "%"}]}
{"compound": "CNC(=O)c1cc(Cl)ccc1NC(=O)CCNC(=O)c1cccc(Cl)c1", "values": [{"measurement": "inhibition", "setting": "Thailand/16681/1984, Concentration 49.5 uM, Number of replicates 2.0, Standard deviation 0.501524232219261 %", "result": -3.63, "unit": "%"}, {"measurement": "inhibition", "setting": "Thailand/16681/1984, Concentration 99.01 uM, Number of replicates 2.0, Standard deviation 0.36152285388450167 %", "result": -3.13, "unit": "%"}, {"measurement": "inhibition", "setting": "Thailand/16681/1984, Concentration 198.0 uM, Number of replicates 2.0, Standard deviation 0.5883606907585598 %", "result": -1.33, "unit": "%"}]}
{"compound": "c1cnc(N2CCOCC2)c(CN2CCC(c3c[nH]c4cccnc34)CC2)c1", "values": [{"measurement": "inhibition", "setting": "Thailand/16681/1984, Concentration 49.5 uM, Number of replicates 2.0, Standard deviation 3.227735513404527 %", "result": -2.55, "unit": "%"}, {"measurement": "inhibition", "setting": "Thailand/16681/1984, Concentration 99.01 uM, Number of replicates 2.0, Standard deviation 3.59276570158156 %", "result": -3.1, "unit": "%"}, {"measurement": "inhibition", "setting": "Thailand/16681/1984, Concentration 198.0 uM, Number of replicates 2.0, Standard deviation 3.7954179066124296 %", "result": -3.02, "unit": "%"}]}
{"compound": "CNC(=O)c1cn(C[C@H]2CCCN2C(=O)c2cccc3ncsc23)nn1", "values": [{"measurement": "inhibition", "setting": "Thailand/16681/1984, Concentration 49.5 uM, Number of replicates 2.0, Standard deviation 0.1358580059513503 %", "result": 0.293, "unit": "%"}, {"measurement": "inhibition", "setting": "Thailand/16681/1984, Concentration 99.01 uM, Number of replicates 2.0, Standard deviation 0.18464096005398162 %", "result": 0.707, "unit": "%"}, {"measurement": "inhibition", "setting": "Thailand/16681/1984, Concentration 198.0 uM, Number of replicates 2.0, Standard deviation 0.18359188284769695 %", "result": 0.879, "unit": "%"}]}
